# Source: paper PMC12136788
# The list shows a part of the results.
# T1: UNK ZnF1-6 (called full-length) (human, UniProt Q9C0B0 30-357)
# T1 sequence: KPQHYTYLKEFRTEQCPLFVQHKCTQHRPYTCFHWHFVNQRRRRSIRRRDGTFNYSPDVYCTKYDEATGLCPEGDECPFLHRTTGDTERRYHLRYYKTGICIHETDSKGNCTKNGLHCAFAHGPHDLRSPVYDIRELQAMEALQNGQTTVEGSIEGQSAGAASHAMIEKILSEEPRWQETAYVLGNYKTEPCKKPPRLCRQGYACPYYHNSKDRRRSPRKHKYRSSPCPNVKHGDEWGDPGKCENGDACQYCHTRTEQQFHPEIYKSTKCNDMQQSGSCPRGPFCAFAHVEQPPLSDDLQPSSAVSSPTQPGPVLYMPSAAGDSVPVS
# B1: ENSG00000198589:be:win_4001|CDS|ENSG00000198589|bound_else_gene|NA|bound_elsewhere_windowed (ssRNA)
# RNA: GGGAGUUCUACAGUCCGACGAUCGAAGCCAUUCAACAAAGACAGUUAUGGACUUCGUGAAUAGCAGUGAUAAUGUCAUCUUUGUACACAACACAAUUCAUCUCAUCUCUCAAGUGAUGGACAAUAUGGUCAUGGCUUGUGGGGCAACAGAGGAUUGAGCAUCA
# B2: chr3:149318497:149321477:-|three_prime_utr|ENSG00000163762|control|control|control (ssRNA)
# RNA: GGGAGUUCUACAGUCCGACGAUCGACAAAAUGUUUUCCAUUAUCAAGACAUGGCCAUCUAUCUAAAUAUUAUAUCAACUGUGUAGACUUGAGGGCAAUAUUGAAAUGAUGGUGCUUUCUGCAUUUGGUGUUUAUUUGUAAAAACAACAGAGGAUUGAGCAUCA
# B3: chr19:2933217:2933488:-|three_prime_utr|ENSG00000175691|control|control|control (ssRNA)
# RNA: GGGAGUUCUACAGUCCGACGAUCGACCUGGGAGAGUGUUCAACCGUAAAACCUUGUUGUAAAUGUGAGAAACGUUAUUUAUGUAGAGCAUGUAGGAAAACCUGGUAUAGCACUUAUUUUGUACCUAAAAAUUCAGAGUAGGAGCAACAGAGGAUUGAGCAUCA
# B4: chr3:53865378:53865479:+|3pUTR|ENSG00000056736|unk|total|mutant (ssRNA)
# RNA: GGGAGUUCUACAGUCCGACGAUCAUUACAGGGAAAAAACGUGUGAUGAUCCUGAAGCUUACUAUGCAGCCUACAAACAGCCUCCGUAAUUAAAACAUUUUAUACCAAUAAAAUUUUCAAAUAUUGCUAACUAAUGCCGCAUUACAACAGAGGAUUGAGCAUCA
# B5: ENSG00000107863:be:win_6001|3pUTR|ENSG00000107863|bound_else_gene|NA|bound_elsewhere_windowed (ssRNA)
# RNA: GGGAGUUCUACAGUCCGACGAUCUUGCACUGUGAAAUAGCUUUACAGUGCAUUACUACAGCCAGAAGAACAUAUAUAUAUAUAUAUAUAUUUAAAAAUAUAUCGGAUAGUUGUAUACAAAUGAGCAAGGUAUUUGUUGCAACUCAACAGAGGAUUGAGCAUCA
# B6: chr13:101061967:101062118:-|CDS|ENSG00000102452|control|control|control (ssRNA)
# RNA: GGGAGUUCUACAGUCCGACGAUCCAUCCGGAAGAGCUUGCAGCUGGAGGAACUCCUGGCGAGGGAGCAGCUGGAGUACACCAUAGAGGAGGAGGUGGCCAAGCAGACCAUCCGCAUGUGGCUCAAGAAGUGCCUGAAGCGCAUCAACAGAGGAUUGAGCAUCA
# B7: chr7:6023389:6023508:+|CDS|ENSG00000106305|unk|total|mutant (ssRNA)
# RNA: GGGAGUUCUACAGUCCGACGAUCGUUCUCUCUGUUUGGCCAGAAGCAUAAUGCUGUCAACGCAACCCUUACCGACCGCUGGGCCGAUAUUGCGAUUUUUCAGUUAAAAGAGGGAAGCAGUAAAGAAAAAGCCGCUGUUUUCCGCAACAGAGGAUUGAGCAUCA
# B8: chr5:113594843:113594944:+|3pUTR|ENSG00000047188|msi1|total|mutant (ssRNA)
# RNA: GGGAGUUCUACAGUCCGACGAUCCAACAUAAAAUCUUGAGAACCUUCUACUUUCUCUGGGAAAGCAUUAUACCGUGGUGCAUCCGUUCCGAAAGUCAGCUAUGAUUUUGCCUACCGUUCCCGUUAUCCGCUUUGGGGUUUUCUCAACAGAGGAUUGAGCAUCA
# B9: chr16:18841627:18841728:-|CDS|ENSG00000157106|msi1|FALSE|bound_elsewhere (ssRNA)
# RNA: GGGAGUUCUACAGUCCGACGAUCUACAAUUAAUCGCCAAGAAACACCCCGGUUCCAUGCUCGACACUAUUCUGUAACACCACUAGGAACAAGAUCAGGACUAAUCCAGUGGGUAGAUGGAGCCACACCCUUAUUUGGUCUUUACAACAGAGGAUUGAGCAUCA
# B10: chr1:225491636:225491737:-|3pUTR|ENSG00000154380|msi1|FALSE|unique (ssRNA)
# RNA: GGGAGUUCUACAGUCCGACGAUCGUACUUUGAAUUCCAUAGGAAAAAGCACUCAGAAGAAAAAGUCUACAUUGGCUAGUGUUUAGAUUGAGAGUUAAUUUUCCCAUCAAGUCCAAAAGUUUCCAUCCAAGUCUAUAGAAACUGCAACAGAGGAUUGAGCAUCA
# B11: ENSG00000198589:be:win_4551|CDS|ENSG00000198589|bound_else_gene|NA|bound_elsewhere_windowed (ssRNA)
# RNA: GGGAGUUCUACAGUCCGACGAUCAGUUGUUUUCAGAGACAUAGAGGAUAGCAAACAAGCUCAAUUUUUAGCCUUGGCAGUAGUAUACUUUAUCUCUGUUCUUAUGGUCUCCAAGUACAGAGACAUUUUGGAACCCCAAAAUGACAACAGAGGAUUGAGCAUCA
# B12: chrX:141173234:141176580:-|three_prime_utr|ENSG00000182195|control|control|control (ssRNA)
# RNA: GGGAGUUCUACAGUCCGACGAUCCUUGCCCUCCGGUCCCCUUACCUACCCGCGCCCGUCUGCUCUCUCUCUUCAUUUCUCCGUAGUGCUUGUCUUUGUUCCAGGAAUAGCGCUCCAGUUACCUGCUGCUGGGGUCGGGGCUGGCAACAGAGGAUUGAGCAUCA
# B13: ENSG00000090612:stop:overlap|stop_codon|ENSG00000090612|stop_codon|NA|stop_codon (ssRNA)
# RNA: GGGAGUUCUACAGUCCGACGAUCUGCUCACCACAACGUCUGCUUCCCGAGUUCAAGUGGUUCUCUUGCCUCAGCCUCCUGAGUAGCUGGGAUUACAGGUCCCACCUCUCCAAGAACGAAACAGUUCAUGGGAUAGGAUCAGAACAACAGAGGAUUGAGCAUCA
# B14: chr2:135868693:135868794:-|CDS|ENSG00000076003|msi1|total|mutant (ssRNA)
# RNA: GGGAGUUCUACAGUCCGACGAUCCCCAGAGCUUGUGAGCGGAACUUUUCUGUGCUUGGACUGUCAGACAGUGAUCAGGGAUGCCGAACAGCAGUUCAAAUACACACAGCCAAACAUCUGCCGAAAUCCAGUUUGUGCCAACAGCAACAGAGGAUUGAGCAUCA
# B15: chr4:41958937:41959038:+|3pUTR|ENSG00000109133|msi1|FALSE|unique (ssRNA)
# RNA: GGGAGUUCUACAGUCCGACGAUCUCUUGAACUCCUGGCCUCAAGUGAUCUGCCCGCCUCGACCUCCCAGAGUGCUGGGAUUAUAGGUGUGAGCCACUAAGCCUGGCUGAGACAACUAGUUUCCCUUAACUCAUUGGAAUUCUCCAACAGAGGAUUGAGCAUCA
# B16: chr7:30013596:30013706:-|3pUTR|ENSG00000106080|msi1|FALSE|unique (ssRNA)
# RNA: GGGAGUUCUACAGUCCGACGAUCUUAUAUUCAAUAUUUACUUCUUAAGGCUAGCGGAAUAUCCUUCCUGGUUCUUUAAUGGGUAGUCUAUAGUAUAUUAUACUACAAUAACAUUGUAUCAUAAGAUAAAGUAGUAAACCAGUCCAACAGAGGAUUGAGCAUCA
# B17: chr15:38470281:38470388:+|CDS|ENSG00000171262|unk|total|mutant (ssRNA)
# RNA: GGGAGUUCUACAGUCCGACGAUCCUUCAAGCUUCACAGAUAUUACAGAACAAGAAACAUAAAAAUUCUCAAUCCGAUAAAAACCGUGAAGUUUAUCAGGAAGUUCAAGCUAUGUUUGAUACACUUGGUAUACCCAAGUCAACACAACAGAGGAUUGAGCAUCA
# B18: chr10:128103381:128103482:-|CDS|ENSG00000148773|msi1|total|mutant (ssRNA)
# RNA: GGGAGUUCUACAGUCCGACGAUCAACUGGCAGCAGGAGACGGCCAAGAGCACCCAGGGAAAGUGCCCAAGCCACCGAAGACCCCGCUGGCUUCAAAGACCCAGCAGCAGGUCACACUGAAGAAUCAAUGACUGAUGACAAAACCAACAGAGGAUUGAGCAUCA
# B19: ENSG00000198589:be:win_1851|CDS|ENSG00000198589|bound_else_gene|NA|bound_elsewhere_windowed (ssRNA)
# RNA: GGGAGUUCUACAGUCCGACGAUCCAUGCACACGCUGAAGUACUACUACUGGGCAGUGAAUCCUCAGGAUCGAAGUGGUAUCACCCCAAAAGGAUUAGAUGGACCGCGACCUAAUCAAAAAGAAAUGCUUUCUCUACGAGCAUUCAACAGAGGAUUGAGCAUCA
# B20: chr22:42796501:42797587:-|three_prime_utr|ENSG00000242247|control|control|control (ssRNA)
# RNA: GGGAGUUCUACAGUCCGACGAUCGGAGAAAUUCCUCUUUAAAUGAACAAGUAACCACAUCUCAGGCGGCAGUGAAGUCCAGAUAGUUUUGCAGAUUGUUUUGCUACUUUUUCAUAUGGUAUAUGUUUCUGAUUUUUAAUAUUUCAACAGAGGAUUGAGCAUCA
# B21: ENSG00000198589:be:win_5301|CDS|ENSG00000198589|bound_else_gene|NA|bound_elsewhere_windowed (ssRNA)
# RNA: GGGAGUUCUACAGUCCGACGAUCACCAGGCAGUAGAUCAUCUAAUGCAAAAUUGCCCUCAGUUCCAACAGUUGAUUCAGUUUCACAAGAUCCGGUUUCAAAUAUGAGUAUUACAGAGAGGCUUGAACACGCUUUGGAAAAGGCCAACAGAGGAUUGAGCAUCA
# B22: chrX:150768173:150768360:-|3pUTR|ENSG00000102181|msi1|FALSE|unique (ssRNA)
# RNA: GGGAGUUCUACAGUCCGACGAUCUCCCAUCUGAUUCCAUAGGGGGCUGGGUGUGGCCUUCGGGUUGACAUGAGAAAGGUCUUUAGCAAUCAUUUCUGCACCGGAGAUGAGUUUUAUCCUGUGUUGGGGAGAGGUGCUCACCCUCAACAGAGGAUUGAGCAUCA
# Target: T1, UNK ZnF1-6 (called full-length)
# Test: nsRBNS (natural sequence RNA bind-n-seq); RBNS binding buffer (assumed for nsRBNS): 25 mM Tris pH 7.5, 150 mM KCl, 3 mM MgCl2, 0.01% Triton X-100, 500 ug/ml BSA, 20 U/ml SUPERase-In, 4 C; UNK is unkempt and MSI1 is Musashi-1; names of the RNAs are library labels; protein concentration not given here; high values mean tight binding
row,Binder,binding signal [enrichment R]
1,B1,0.409
2,B2,0.481
3,B3,0.615
4,B4,0.406
5,B5,0.368
6,B6,1.01
7,B7,0.493
8,B8,0.459
9,B9,0.869
10,B10,0.708
11,B11,1.16
12,B12,1.29
13,B13,0.41
14,B14,0.698
15,B15,0.784
16,B16,1
17,B17,0.213
18,B18,0.749
19,B19,0.456
20,B20,1.49
21,B21,0.489
22,B22,1.06
